This is one part of the list. Rule as the data show it: active = 3.2 or more and inactive = the rest. Only a few entries rise above the background.
Columns and labels:
Assay in all cases: enrichment score (SH2-bound / input frequency) (ratio); bacterial display of known human phosphotyrosine sites (pTyr-Var adds point mutants) read by sequencing; higher = stronger binding; tyrosines were phosphorylated by kinases first
Conditions in all cases: peptide library: pTyr-Var
SHP2 C-SH2 domain E139D = molecular target: SHP2 C-SH2 domain E139D
[1] = molecular target: SHP2 C-SH2 domain wild-type
SHP2 N-SH2 domain L43F = molecular target: SHP2 N-SH2 domain L43F
SHP2 N-SH2 domain T42A = molecular target: SHP2 N-SH2 domain T42A
SHP2 N-SH2 domain T52S = molecular target: SHP2 N-SH2 domain T52S
[2] = molecular target: SHP2 N-SH2 domain wild-type
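Also: displayed peptides selected on beads carrying the immobilized SH2 domain, with library peptides lacking any tyrosine serving as negative controls.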

Row | Binder | enrichment score (SHP2 C-SH2 domain E139D) | enrichment score [1] | enrichment score (SHP2 N-SH2 domain L43F) | enrichment score (SHP2 N-SH2 domain T42A) | enrichment score (SHP2 N-SH2 domain T52S) | enrichment score [2]
1 | LSSLAYSGKDA [FXN_Y205] | inactive: 1.13 | inactive: 1.02 | inactive: 0.873 | inactive: 0.957 | inactive: 0.746 | inactive: 0.836
2 | PEAALYGRFTF [FYN_Y440_I445F] | inactive: 1.04 | inactive: 1.37 | inactive: 0.883 | inactive: 0.829 | inactive: 1.05 | inactive: 1.55
3 | FARNSYVAGQY [G6PD_Y107] | inactive: 0.52 | inactive: 0.457 | inactive: 0.541 | inactive: 0.481 | inactive: 0.537 | inactive: 0.501
4 | FARNCYVAGQF [G6PD_Y107_S106C_YF] | inactive: 0.765 | inactive: 0.97 | active: 7.95 | inactive: 0.703 | inactive: 0.619 | inactive: 1.12
5 | YHIDHYLGKEM [G6PD_Y202_R198H] | inactive: 0.994 | inactive: 0.948 | inactive: 1.09 | inactive: 0.844 | inactive: 1.1 | inactive: 0.731
6 | FHIDHYLGKEM [G6PD_Y202_R198H_YF] | inactive: 1.99 | inactive: 1.68 | inactive: 1.55 | inactive: 1.9 | inactive: 1.55 | inactive: 1.42
7 | FSIDHYLGKEM [G6PD_Y202_R198S_YF] | inactive: 1.28 | inactive: 0.865 | inactive: 1.08 | inactive: 1.09 | inactive: 1.27 | inactive: 1.39
8 | FRIDHYLGKEM [G6PD_Y202_YF] | inactive: 1.19 | inactive: 1.07 | inactive: 0.916 | inactive: 1.17 | inactive: 1.19 | inactive: 1.08
9 | EATKGYLDDPT [G6PD_Y322] | inactive: 0.652 | inactive: 0.561 | inactive: 0.592 | inactive: 0.52 | inactive: 0.512 | inactive: 0.784
10 | EATKGHLDDPT [G6PD_Y322_Y322H] | inactive: 0.426 | inactive: 0.55 | inactive: 0.399 | inactive: 0.414 | inactive: 0.671 | inactive: 0.683
11 | PNEAVYTKMMT [G6PD_Y401] | inactive: 0.62 | inactive: 0.733 | inactive: 0.753 | inactive: 0.802 | inactive: 0.683 | inactive: 0.724
12 | LNEAVYTKMMT [G6PD_Y401_P396L] | inactive: 0.701 | inactive: 0.612 | inactive: 0.683 | inactive: 0.928 | inactive: 0.465 | inactive: 0.789
13 | WNDLDYMDSRR [GAA_Y407] | inactive: 0.893 | inactive: 0.678 | inactive: 0.725 | inactive: 0.798 | inactive: 0.751 | inactive: 0.848
14 | WNNLDYMDSRR [GAA_Y407_D404N] | inactive: 1.06 | inactive: 0.957 | inactive: 1.12 | inactive: 0.98 | inactive: 0.901 | inactive: 0.888
15 | QGGRRYMMIVD [GAA_Y438] | inactive: 0.659 | inactive: 0.513 | inactive: 0.517 | inactive: 0.536 | inactive: 0.411 | inactive: 1.42
16 | QGGRCYMMIVD [GAA_Y438_R437C] | inactive: 0.926 | inactive: 1 | inactive: 1.02 | inactive: 0.927 | inactive: 0.764 | inactive: 1.36
17 | QGGRHYMMIVD [GAA_Y438_R437H] | inactive: 1.01 | inactive: 1.22 | inactive: 0.763 | inactive: 1.19 | inactive: 1.12 | inactive: 1.37
18 | HLRAGYIIPLQ [GAA_Y822] | inactive: 1.96 | inactive: 2.92 | inactive: 1.31 | inactive: 2.01 | inactive: 3.07 | inactive: 1.96

Reference: the supplement of paper PMC10369915
